# In all, about 150,000 compounds went through this assay and about 540 (0.36%) showed an effect of 50% or more. Some of the results follow.
# Tested on: Plasmodium falciparum
# Test: Primary screen in NF54 nanoGlo assay, in single point, at 2uM, 72h; a lower Z score goes with more inhibition
# Type: functional, Erythrocyte
# Settings: timepoint 72 hour
Structure (SMILES),% Inhibition,Z score
O=C1N[C@H](C(=O)NCCCOC2CCCC2)Cc2ccccc21,-1%,0.19
COC(=O)C1(NC(=O)c2ccc3c(c2)OCO3)CCCCC1,-17%,3.2
NC(=NCc1c(F)cc(Br)cc1F)N1CCOCC1,0%,-0.09
CC(=O)N1CCN(C(=O)c2coc(CN(Cc3ccc(F)cc3)Cc3cc(C)ccc3C)n2)CC1,-1%,0.11
CN1CC(=O)N[C@@H]2CN(C(=O)c3ccncc3)CC[C@@H]2OCc2cccc(c2)Oc2cccc(c2)CCC1=O,4%,-0.55
CC(=O)c1cc(CN(C)C[C@H]2CCN(c3ccccc3)C2)n(C)c1,-20%,2.96
COc1ccc(O[C@H]2CCN(C(=O)c3cnn4c3OCCC4)C2)nn1,-5%,0.52
O=C(N[C@H]1CCOC[C@@H]1O)c1cccc2ccccc12,-5%,0.88
Cc1ccc(-c2cc(C(=O)Nc3ncccc3Cl)c3ccccc3n2)s1,3%,-0.34
O=C(NCCN1CCCC[C@@H]1CO)c1cccc(-c2nccs2)c1,-7%,0.83
CC(C)(Nc1ccc2c(c1)OCCO2)c1nnnn1-c1ccccc1,1%,-0.19
Cc1ccc(NC(=O)c2cnn(-c3ccc(C)c(Cl)c3)c2C2CCN(C(=O)OC(C)(C)C)CC2)c(C)c1,-4%,0.64
CC(C)[C@H](Cn1nccn1)NC(=O)c1cccc2ccccc12,-5%,0.77
COc1ccc(-c2nc3ncccc3o2)cc1-n1cnnc1,-21%,2.87
Cc1cc(CN(C)C(=O)C2C3C(=O)N(Cc4ccc(C)c(C)c4)C[C@@]34C=C[C@@H]2O4)no1 (stereo partly specified),-8%,1.48
Cc1noc(C)c1S(=O)(=O)N1CCCC[C@H](NC(=O)c2cnc(O)cn2)C1,-11%,2.03
Cc1noc(C)c1[C@@H](C)CNC(=O)c1cnccc1N,-9%,1.34
COc1ccc(CCN2C(=O)N[C@@H](CC(=O)Nc3ccccc3OC)C2=O)cc1,2%,-0.2
CCN(CC)CC1(Nc2nc(N)nc(C)c2Cl)CC1,-10%,1.68
CCc1ncnc(N(C)Cc2cc(C)on2)c1F,-6%,1.08
CCN(Cc1nc2c(s1)C[C@@H](C)CC2)C(=O)c1ocnc1C1CC1,22%,-2.63

Structure (SMILES),% Inhibition,Z score
FC(F)(F)c1nnc2ccc(Oc3ccc4ccccc4c3Br)nn12,3%,-0.36
COCCN(C)C[C@H]1C[C@H](CO)CN(C(=O)c2ccc(Cl)cc2O)C1,-8%,0.89
O=C1C(=O)N(CN2CCN(c3ccc(Cl)c(Cl)c3)CC2)c2ccccc21,1%,-0.12
CO[C@H]1CN(c2ccnc(C(C)C)n2)C[C@H]1OC,-3%,0.57
CCOCCCC(=O)Nc1ccc(O)c(COC(C)C)c1,-6%,1.03
Cc1c(-c2ccccc2)ncn1C[C@@H](c1ccco1)N1CCCC1,-7%,1.05
CCCC[C@H](NC(=O)c1cnc(-c2cccnc2)nc1)C(N)=O,-11%,1.55
CN(C)C(=O)CC[C@H]1CCCN(Cc2cc3cc(F)ccc3n2C)C1,15%,-1.92
O=C(NC[C@H]1CCCN(Cc2ccoc2)C1)C1CCOCC1,-5%,0.93
CCc1ccc(Cn2nc(CC(N)=O)nc2C2CCOCC2)cc1,7%,-0.93
CCc1onc(C)c1CNC(=O)Nc1cnn(-c2ccncc2)c1,15%,-2.4
CCc1ccc(CNC(=O)c2cc(COc3ccc4sc(C)nc4c3)on2)nc1,-1%,0.15
COCC(C)(C)N(C)C(=O)c1cc(Br)cc(C(=O)O)c1,-9%,1.03
Cc1cnc(COc2c(F)cccc2F)o1,-4%,0.37
Cc1cc(F)c2c(c1)CCCN2CC(=O)N1CCNC1=O,-1%,0.12
CCOc1ccccc1CNC(=O)C1CCN(c2c(NC(=O)CC)c(C)nn2-c2ccccc2)CC1,-10%,1.71
COCC(=O)N[C@@H](C)Cc1ccc2c(c1)CCO2,-4%,0.67
COc1cc(C(C)N2C(=O)[C@H]3CCCCN3C2=O)ccc1F (stereo partly specified),8%,-0.67
Cc1nc(-c2cccc(C(F)(F)F)c2)c(N)c(N2CCCC2)n1,-1%,0.2
Nc1nnnn1CC(=O)NCc1cc(-c2ccccc2Cl)on1,-12%,1.62
Cc1cncc(CNC(=O)CCC(=O)OC(C)(C)C)c1,-11%,1.9

Structure (SMILES),% Inhibition,Z score
Cc1cc(OC(F)F)c(C(=O)N2CC[C@H](Oc3ccccc3Cl)C2)s1,-10%,1.46
C[C@H]1Cc2cc(C(=O)N3CCOCC3)ccc2N1S(=O)(=O)c1ccccc1,12%,-1.33
Cc1ncoc1C(=O)N1CCC[C@H](CN2CCN(c3ccccn3)CC2)C1,-13%,1.76
CCn1cnc2c1CCN(C(=O)Nc1cn(C)nc1C(C)C)C2,-5%,0.59
CC(C)Cc1ccc(S(=O)(=O)Nc2cc(C(=O)N3CCOCC3)ccc2N2CCNCC2)cc1,-9%,0.88
Cc1nc2ccc(CNC(=O)c3cnc(-c4cccs4)nc3)cc2[nH]1,-12%,1.71
Cc1ccc(NS(=O)(=O)c2ccc(C(=O)Nc3ccc4[nH]c(=O)[nH]c4c3)cc2)cc1C,2%,-0.31
O=c1c2nnsc2ncn1CCN1CCOCC1,-33%,3.83
Cc1cc2ncn(Cc3nnc(C4CCC4)n3C)c2cc1C,-13%,1.34
Cc1sc2ccccc2c1-c1cn(Cc2nnc3n2CCC3)nn1,6%,-0.75
CCn1ccc(C(=O)N[C@@H]2COCC[C@@H]2Oc2ccccc2)cc1=O,-10%,1.57
CCCCn1nnnc1CN1CC(C)OCC1C (stereo unspecified),-6%,0.59
Cc1[nH]c2ccccc2c1C1C(CC(=O)N(Cc2ccco2)C(C)(C)C(=O)Nc2ccc(N(C)C)cc2)C1(C)C (stereo unspecified),-35%,4.12
CCCCN(C)S(=O)(=O)N1CC[C@H](NC(=O)OC(C)(C)C)C1,2%,-0.33
Cc1cnc(C(=O)N2C[C@@H]3COc4ccccc4C[C@]3(CO)C2)cn1,-5%,0.88
CCc1ccc(S(=O)(=O)N2CCN(C)[C@@]3(CCNC(=O)CC3)C2)s1,-17%,2.46
COc1ccc(N2CCN(Cc3cc(C4CC4)n[nH]3)CC2)cc1,-13%,2.02
CC(C)S(=O)(=O)N1CC[C@H](n2cc(COCC3CC3)nn2)C1,-11%,1.61
CC(C)(C)c1ncc(CN2CCOC(C3CCCO3)C2)s1 (stereo unspecified),-2%,0.43
CCNc1cc(C(=O)NC[C@@]2(C)CCN(C(=O)c3ccnc(NCC)c3)C2)ccn1,-6%,0.68
Cc1ccc(OCC(=O)Nc2noc(-c3cccc4ccccc34)n2)cc1C,-4%,0.53

Structure (SMILES),% Inhibition,Z score
CC(=O)N1CCN(C(=O)c2cc3oc(C)cc3n2CCOc2ccccc2)CC1,8%,-1.33
CC(NCC(N)c1ccccc1)c1nccs1 (stereo unspecified),-4%,0.81
CCCn1nnc2cc(S(=O)(=O)N3CCCC[C@H]3C(=O)NCc3cccc(C)c3)ccc21,-16%,2.64
Fc1ccc(CNC[C@H]2Cn3c(-c4ccc5c(c4)OCCO5)cnc3CO2)cc1,-10%,1.26
N#C[C@H]1C(=O)c2ccccc2N(Cc2ccccc2)C1=O,-5%,0.84
O=C(NC1CC1)N(CCN1CCCC1)Cc1ccc(Cl)cc1,-1%,0.1
CN(CCC#N)C(=O)Cn1ccc(C(F)(F)F)n1,-2%,0.28
Cc1ncc(C(=O)NC[C@@H](c2ccc(F)cc2)N2CCCC2)c(O)n1,-8%,1.17
CN1C(=O)[C@@H]2CCC[C@H]1CN(Cc1cc(C3CC3)n[nH]1)C2,-6%,1.17
O=C(O)[C@H]1CCCN(C(=O)c2ccc(-c3nc(C4CC4)no3)cc2)C1,-6%,1.15
CO[C@@H](C(=O)N1CCC2(CCC(O)CC2)CC1)c1ccccc1,-9%,1.18
CCN1C(=O)[C@@H]2CC3(CCN(S(=O)(=O)c4cccnc4)CC3)CN2C1=O,-9%,1.17
O=C(O)[C@@]12COC[C@@H]1CN(Cc1cc(Cl)cc3ccccc13)C2,3%,-0.56
Cc1ccc(CN(C)C(=O)c2cc(COc3ccc4c(c3)OCO4)[nH]n2)o1,0%,0.04
Cc1nn(C)c2nc(NC[C@H]3CCN(C4CCCC4)C3)sc12,-8%,1.44
CN(CC(=O)NCc1ccco1)C(=O)Cn1cnc2ccccc2c1=O,15%,-2.17
Cc1c(-c2c(-c3ccccc3)ncn2CCS(C)(=O)=O)[nH]c2ccccc12,-5%,0.58
O=C(c1cccnc1)N1CC[C@H](Cc2noc(C3CC3)n2)C1,4%,-0.57
Cc1ccc(C2=NO[C@H](c3ccc(C)cc3)C2)cc1,-10%,1.99
CN(CC(=O)N1N=C(c2ccccc2F)C[C@H]1c1ccc(Cl)cc1)C(=O)c1cccc(F)c1,9%,-0.99
